Source: PubChem BioAssay AID2675 (National Center for Advancing Translational Sciences (NCATS), 2010)
In all, about 280,000 compounds went through this assay and about 100 (0.036%) were called active. Inconclusive results, whose numbers are uncertain, are shown with a selection of clear calls. The call rests on the fitted dose curve; in most records, active means well fitted inhibition curve with a large enough effect in the signal ratio, with a control signal flat (not every such curve was filed as active); inconclusive means small, poorly fitted or top-dose-only effect, or effect the other way, or a change in a side signal; inactive means no such curve, though single readings can be large or run the other way; the % refers to the signal ratio. A potency beside an inconclusive call is a rough fit, not a confirmed value. “Side channel” marks fits to a control or component signal instead of the main read-out.

Molecular target: Muscleblind-like protein 1 (Homo sapiens) (UniProt Q9NR56)
Sequence of UniProt Q9NR56 (Q9NR56 whole entry, looked up): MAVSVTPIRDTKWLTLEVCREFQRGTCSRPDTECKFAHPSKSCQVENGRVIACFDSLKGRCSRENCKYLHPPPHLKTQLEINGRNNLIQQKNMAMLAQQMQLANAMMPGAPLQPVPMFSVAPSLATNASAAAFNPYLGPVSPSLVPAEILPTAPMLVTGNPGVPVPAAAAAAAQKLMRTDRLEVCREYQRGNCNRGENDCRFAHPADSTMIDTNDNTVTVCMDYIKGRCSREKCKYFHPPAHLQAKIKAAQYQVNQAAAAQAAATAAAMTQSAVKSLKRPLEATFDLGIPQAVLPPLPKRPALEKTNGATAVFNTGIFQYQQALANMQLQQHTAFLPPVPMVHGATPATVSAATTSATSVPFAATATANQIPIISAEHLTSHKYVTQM
Assay: qHTS Assay for Inhibitors of MBNL1-poly(CUG) RNA binding
Settings: TR-FRET MBNL1-His/biotin-(CUG)12 binding, 665/545 ratio; activity change, negative = inhibition: at 57.5 µM (top of the series)
Method in brief: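 MBNL1-His + Biotin-(CUG)12, cpd titration 92 nM–58 uM; Tb anti-His Ab 0.055 ng/ul, SA-XL665 5 nM (final); 60 min RT; ratiometric 665/545 nm, Ex 340 nm; normalized to buffer and full-complex controls.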
On the % scale 0 is the no-effect control and ±100 the full control effect; potency means the concentration at half of the fitted maximal effect; tags describe the fitted curve by direction and shape or compound fluorescence and quenching.

**Q.** For `O=C(O)c1ccc(-c2ccc(/C=C3\NC(=O)N(Cc4ccc(Cl)cc4)C3=O)o2)cc1Cl`, which “activity change, negative = inhibition” value is on record?
**A.** inactive: 10.7%

**Q.** For `COc1cc(NS(=O)(=O)c2cccc3nsnc23)cc(OC)c1`, which Potency is on record?
**A.** inconclusive: 20 µM [quencher, side channel, partial curve]

**Q.** `Cc1cc(C)cc(NC(=O)CSc2nc3c(oc4ccccc43)c(=O)n2-c2ccccc2)c1` was tested. Which Potency did it give?
**A.** inconclusive: 0.1 µM [fluorescent, side channel, partial curve, poor fit]

**Q.** For `O=C(N/N=C/c1ccccc1[N+](=O)[O-])c1ccncc1`, which Potency is on record?
**A.** inconclusive: 15.8 µM [quencher, partial curve]

**Q.** Which Potency does the source give for `CCCCOC(=O)c1ccc(NC(=O)c2cnccn2)cc1` here?
**A.** inconclusive: 0.794 µM [quencher, side channel, single point]

**Q.** `c1ccc2oc(-c3ccc(Nc4nc(N5CCCC5)nc(N5CCOCC5)n4)cc3)nc2c1` was tested. Which Potency did it give?
**A.** inconclusive: 28.2 µM [fluorescent, side channel, single point]

**Q.** `Oc1cccc(/C=N/Nc2nn3cnnc3c3ccccc23)c1` was tested. Which Potency did it give?
**A.** inconclusive: 12.6 µM [quencher, side channel, partial curve]

**Q.** With `O=C(CN1CCOCC1)N1c2ccccc2Sc2ccccc21` as the compound, how does the “activity change, negative = inhibition” value read?
**A.** inactive: -4.23%

**Q.** `O=C(COC(=O)c1ccc([N+](=O)[O-])cc1)NC1CCCC1` was tested. Which Potency did it give?
**A.** inconclusive: 10 µM [quencher, side channel, partial curve]

**Q.** For `Oc1ccc(Cn2ccnc2)c2cccnc12`, which “activity change, negative = inhibition” value is on record?
**A.** inactive: 39.8%

**Q.** Which Potency does the source give for `O=C1NC(=O)/C(=C\c2cn(CC(=O)N3CCOCC3)c3ccccc23)S1` here?
**A.** inconclusive: 3.55 µM [quencher, side channel, full curve]

**Q.** How did the Potency turn out when `Cc1csc(SCC(=O)Nc2ccccc2[N+](=O)[O-])n1` was run?
**A.** inconclusive: 14.1 µM [quencher, partial curve]

**Q.** With `Cc1nc(C)c(C(=O)N/N=C/c2ccco2)s1` as the compound, how does the Potency read?
**A.** inconclusive: 17.8 µM [quencher, side channel, single point]

**Q.** Which Potency does the source give for `Cc1ccc2cc(CNC(C)C)c(=O)[nH]c2c1` here?
**A.** inconclusive: 39.8 µM [quencher, single point]

**Q.** With `Cc1nc(SCC(=O)c2ccccc2)c([N+](=O)[O-])[nH]1` as the compound, how does the Potency read?
**A.** inconclusive: 20 µM [quencher, single point]

**Q.** Which Potency does the source give for `Cc1ccc(-c2nnn(CC(=O)N(c3cccc(F)c3)C(C(=O)NC(C)(C)C)c3ccco3)n2)o1` (stereo not given) here?
**A.** inconclusive: 6.31 µM [inhibitor, single point]

**Q.** With `CN(C)c1ccc(C(C(=O)NCC2CCCO2)N(C(=O)c2snc(C(N)=O)c2N)c2ccc3c(c2)OCO3)cc1` (stereo not given) as the compound, how does the Potency read?
**A.** inconclusive: 15.8 µM [quencher, side channel, partial curve]

**Q.** How did the Potency turn out when `O=C(CCc1n[nH]c(=O)[nH]c1=O)N1CCOCC1` was run?
**A.** inconclusive: 3.98 µM [quencher, side channel, single point]

**Q.** Which Potency does the source give for `COC1(C)CC2C(CC1OC(=O)c1cc([N+](=O)[O-])cc([N+](=O)[O-])c1)C2(C)C` (stereo not given) here?
**A.** inconclusive: 4.47 µM [quencher, side channel, full curve]

**Q.** `O=[N+]([O-])c1cc(Br)c(O)c(/C=N/Nc2nnnn2-c2cccc3ccccc23)c1` was tested. Which “activity change, negative = inhibition” value did it give?
**A.** inactive: 2.98%

**Q.** For `CC(Nc1cc(N2CCOCC2)ccc1[N+](=O)[O-])c1ccccc1` (stereo not given), which Potency is on record?
**A.** inconclusive: 39.8 µM [quencher, side channel, partial curve]

**Q.** For `CSc1nsc(SCC(=O)NCc2ccc(C)cc2)n1`, which “activity change, negative = inhibition” value is on record?
**A.** inactive: 6.46%

**Q.** With `CC1CCCC(C)N1C(=O)Cn1nnc(-c2ccc([N+](=O)[O-])cc2)n1` (stereo not given) as the compound, how does the Potency read?
**A.** inconclusive: 10 µM [quencher, side channel, partial curve]

**Q.** How did the Potency turn out when `O=C(CC1Oc2ccccc2NC1=O)NCCCN1CCOCC1` (stereo not given) was run?
**A.** inconclusive: 0.631 µM [quencher, side channel, partial curve, poor fit]

**Q.** How did the Potency turn out when `O=c1oc2ccccc2c(NCc2ccc(Cl)cc2)c1[N+](=O)[O-]` was run?
**A.** inconclusive: 8.91 µM [quencher, side channel, partial curve]

**Q.** With `Cn1c(=O)c2cn3ncccc3c2n(C)c1=O` as the compound, how does the Potency read?
**A.** inconclusive: 20 µM [quencher, side channel, partial curve]

**Q.** With `CNS(=O)(=O)c1cccc(C(=O)OCCCOC(=O)c2cccc(S(=O)(=O)NC)c2)c1` as the compound, how does the Potency read?
**A.** inconclusive: 25.1 µM [quencher, side channel, partial curve]

**Q.** Which “activity change, negative = inhibition” value does the source give for `Cc1c(C(=O)N(C)CCCCN2CCOCC2)oc2c(F)cccc12` here?
**A.** inactive: 6.76%

**Q.** With `CCCC(=O)OCC(=O)Nc1ccccc1Sc1ccccc1` as the compound, how does the Potency read?
**A.** inconclusive: 31.6 µM [fluorescent, side channel, single point]

**Q.** For `CC(=O)c1cccc(NC(=S)NC2CC2)c1`, which “activity change, negative = inhibition” value is on record?
**A.** inactive: -19.5%

**Q.** For `CCOC(=O)c1cc2n(c1N)-c1ccccc1C2=O`, which Potency is on record?
**A.** inconclusive: 14.1 µM [quencher, side channel, partial curve]

**Q.** `Cc1ccc(-c2cc3c(nn2)-c2ccccc2C3=O)cc1` was tested. Which Potency did it give?
**A.** inconclusive: 2.51 µM [quencher, side channel, full curve]

**Q.** For `O=C(/C=C/c1ccco1)NCc1ccc(F)cc1`, which Potency is on record?
**A.** inconclusive: 15.8 µM [quencher, side channel, partial curve]

**Q.** With `CCOc1ccc2nc(Cl)c(C3CC(c4ccco4)=NN3S(=O)(=O)c3ccccc3)cc2c1` (stereo not given) as the compound, how does the “activity change, negative = inhibition” value read?
**A.** inactive: -7.81%

**Q.** With `CN(C)C(=S)Nc1ccc(Cc2ccncc2)cc1` as the compound, how does the Potency read?
**A.** inconclusive: 39.8 µM [quencher, side channel, single point]

**Q.** `CCC(=O)Nc1nc2ccc([N+](=O)[O-])cc2s1` was tested. Which Potency did it give?
**A.** inconclusive: 6.31 µM [quencher, side channel, partial curve]

**Q.** For `O=C(N/C(=C\c1ccc([N+](=O)[O-])cc1)C(=O)N1CCOCC1)c1cccc(Br)c1`, which Potency is on record?
**A.** inconclusive: 12.6 µM [quencher, partial curve]

**Q.** With `COc1ccc(OCCNc2c([N+](=O)[O-])c(=O)oc3ccccc23)cc1` as the compound, how does the Potency read?
**A.** inconclusive: 14.1 µM [quencher, side channel, partial curve]

**Q.** `CN(C=[N+](C)C)c1cccc2c1C(=O)c1ccccc1C2=O` was tested. Which Potency did it give?
**A.** inconclusive: 5.62 µM [quencher, side channel, partial curve]

**Q.** `O=C(c1ccc2c(c1)C(=O)N(CCCO)C2=O)c1ccc2c(c1)C(=O)N(CCCO)C2=O` was tested. Which Potency did it give?
**A.** inconclusive: 6.31 µM [quencher, side channel, partial curve]

**Q.** How did the Potency turn out when `CCOC(=O)C1CCCN(C(=O)/C=C/c2cccc([N+](=O)[O-])c2)C1` (stereo not given) was run?
**A.** inconclusive: 17.8 µM [quencher, side channel, partial curve]

**Q.** For `CSc1nsc(NC(=O)CCNC(=O)c2ccc([N+](=O)[O-])cc2)n1`, which Potency is on record?
**A.** inconclusive: 12.6 µM [quencher, side channel, partial curve]

**Q.** With `NC(=O)c1ccccc1N/C=C/C(=O)c1ccc(F)cc1` as the compound, how does the Potency read?
**A.** inconclusive: 4.47 µM [quencher, side channel, full curve]

**Q.** With `COc1ccc(N/C=C/C(=O)C(F)(F)F)cc1` as the compound, how does the Potency read?
**A.** inconclusive: 22.4 µM [quencher, side channel, partial curve]

**Q.** `O=C(NCCN1CCN(c2ccccc2F)CC1)c1ccc2nc3ccccc3c(=O)n2c1` was tested. Which Potency did it give?
**A.** inconclusive: 3.16 µM [quencher, side channel, full curve, poor fit]

**Q.** For `CCn1c(N)c(C(=O)NCc2cccnc2)sc1=S`, which Potency is on record?
**A.** inconclusive: 7.08 µM [quencher, side channel, partial curve]

**Q.** Which “activity change, negative = inhibition” value does the source give for `CN(CC(=O)NC1CCCc2ccccc21)C1CCCCC1` (stereo not given) here?
**A.** inactive: 0.242%

**Q.** `N#Cc1cc(C(=O)c2ccccc2OCC(=O)Nc2ccccc2)cn(C2CCCCC2)c1=O` was tested. Which activity change, negative = inhibition did it give?
**A.** inconclusive: -11.9% [phenotype inactive]

**Q.** Which Potency does the source give for `COc1ccc([C@H]2[C@H](C(C)=O)N3N=Cc4ccccc4C3C23C(=O)OC(C)(C)OC3=O)cc1` (stereo not given in full) here?
**A.** inconclusive: 17.8 µM [quencher, side channel, single point]

**Q.** `COc1cc(C(=O)Nc2ccc(S(=O)(=O)Nc3ncccn3)cc2)c([N+](=O)[O-])cc1OC` was tested. Which Potency did it give?
**A.** inconclusive: 28.2 µM [quencher, side channel, partial curve]

**Q.** For `O=C1CN(C(=O)c2cc3ccccc3o2)c2ccccc2N1`, which Potency is on record?
**A.** inconclusive: 0.1 µM [fluorescent, side channel, full curve]

**Q.** For `CN1/C(=C\C(=O)Nc2ccc(F)cc2)C(C)(C)c2ccccc21`, which “activity change, negative = inhibition” value is on record?
**A.** inactive: -15.6%

**Q.** With `O=C(NN1C(=O)c2ccccc2NC1c1ccc([N+](=O)[O-])o1)c1ccccc1` (stereo not given) as the compound, how does the Potency read?
**A.** inconclusive: 22.4 µM [quencher, partial curve]

**Q.** How did the “activity change, negative = inhibition” value turn out when `CCc1cccc(CC)c1NC(=S)NCCc1c(C)[nH]c2ccccc12` was run?
**A.** inactive: -7.37%

**Q.** For `COc1ccccc1N1CCN(C(=O)c2cc3c(=O)n4cccc(C)c4nc3s2)CC1`, which Potency is on record?
**A.** inconclusive: 12.6 µM [quencher, side channel, partial curve]

**Q.** With `COc1ccc(CCN2C(=S)NC3CC2(C)Oc2ccc([N+](=O)[O-])cc23)cc1OC` (stereo not given) as the compound, how does the Potency read?
**A.** inconclusive: 17.8 µM [quencher, side channel, single point]

**Q.** `O=C(CN1CCC(n2nnc3cc(C(F)(F)F)ccc32)CC1)Nc1ccc2c(c1)CCC2` was tested. Which “activity change, negative = inhibition” value did it give?
**A.** inactive: -1.12%

**Q.** How did the “activity change, negative = inhibition” value turn out when `O=C(O)c1cc(S(=O)(=O)N2CCCCC2)sc1Cl` was run?
**A.** inactive: -17.7%

**Q.** `COc1ccccc1C1/C(=C(/O)c2ccc(OC(C)C)cc2)C(=O)C(=O)N1c1cc(C)on1` (stereo not given) was tested. Which Potency did it give?
**A.** inconclusive: 31.6 µM [quencher, side channel, single point]

**Q.** How did the Potency turn out when `O=C(CSc1nnc(-c2ccccc2Cl)o1)Oc1ccc(Br)cc1` was run?
**A.** inconclusive: 0.1 µM [fluorescent, side channel, full curve, poor fit]
